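A five-concentration, 48-hour dose response in 96-well plates underlies each endpoint, interpolated linearly between surrounding concentrations. GI50 marks 50% less growth.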 Some entries of the source have several records that differ or are many. They are shown here; other results are not. There may be further records. For part of these data: The records of an entry are repeats (runs, samples, wells, individuals or studies). Records carry a tag for their origin. The letters are not those of the source and start again with each entry.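 TGI is the concentration that stops growth completely.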 For part of these data: Records of one sample usually come from different ranges of test concentrations, which the source does not state; a value can be the end of its range.

Data on 5 compounds can be found in PubChem BioAssay (NCI).

Test systems include CAKI-1 renal; DU-145 prostate; SK-OV-3 ovarian; 786-0 renal; A498 renal; A549 NSCLC; CCRF-CEM leukemia; DLD-1 colon; EKVX NSCLC; HCT-15 colon; HOP-62 NSCLC; HT29 colon; IGROV1 ovarian; K-562 leukemia; KM12 colon; KM20L2 colon; LOX IMVI melanoma; LXFL 529 NSCLC; MOLT-4 leukemia; NCI-H460 lung; OVCAR-3 ovarian; OVCAR-5 ovarian; OVCAR-8 ovarian; SF-268 CNS; SF-295 CNS; SF-539 CNS; SNB-19 CNS; SNB-75 CNS; U251 CNS; UACC-257 melanoma; UO-31 renal; HCC-2998 colon; NCI-H226 lung; NCI/ADR-RES ovarian; NCI-H23 lung; SW-620 colon; HL-60(TB) leukemia.

Holding throughout (assay): inhibition of tumour cell growth, NCI panel, 48 h

Consider `C=CC(=O)N1CCC(Oc2cc3c(Nc4ccc(Cl)c(Cl)c4F)ncnc3cc2OC)CC1`, for which the GI50 was < 10 nM [sample A, mean of 2 tests] and 213 nM [sample B, mean of 2 tests] in the test on CAKI-1 renal; 61.4 nM [sample A, mean of 2 tests] and 906 nM [sample B, mean of 2 tests] in the test with DU-145 prostate. In addition, the TGI in the test on SK-OV-3 ovarian was < 10 nM [sample A, 1 test] and 181 nM [sample B, mean of 2 tests].

In the case of `COc1ccc(C2=C[C@]3(O)CCCN3C[C@@H]2c2ccc(OC)c(OC)c2)cc1`, the TGI in the test on 786-0 renal is < 0.1 nM and 115 nM; in the test with A498 renal, < 0.1 nM and 662 nM; in the test on A549 NSCLC it was 1.39 nM and 319 nM; with CCRF-CEM leukemia, 0.257 nM and 517 nM; with DLD-1 colon, 1.72 nM and 140 nM; in the test on EKVX NSCLC, 11.9 nM and 10.9 µM. Moreover, the TGI with HCT-15 colon was 1.59 nM and 46.5 µM; in the test with HOP-62 NSCLC, < 0.1 nM and 235 nM; in the test on HT29 colon, 0.288 nM and 23.6 nM; in the test on IGROV1 ovarian, 0.159 nM and 474 nM; with K-562 leukemia it was 199 nM and 22.3 µM; in the test with KM12 colon it was 0.761 nM and 18.5 nM. The TGI was 0.351 nM and 1.21 µM in the test on KM20L2 colon; 0.138 nM and 13.2 nM with LOX IMVI melanoma; < 0.1 nM and 1.45 µM in the test on LXFL 529 NSCLC; 0.315 nM and 19.4 nM in the test with MOLT-4 leukemia; < 0.1 nM and 24.5 nM in the test on NCI-H460 lung; < 0.1 nM and 351 nM with OVCAR-3 ovarian. Moreover, the TGI in the test on OVCAR-5 ovarian was 0.603 nM and 116 nM; with OVCAR-8 ovarian, 0.196 nM and 184 nM; in the test on SF-268 CNS, 0.122 nM and 23.1 nM; in the test on SF-295 CNS, 0.501 nM and 24.4 nM; with SF-539 CNS, < 0.1 nM and 1.11 µM; in the test on SK-OV-3 ovarian, 0.571 nM and 260 nM. Also, the TGI in the test with SNB-19 CNS was 1.01 nM and > 100 µM; in the test with SNB-75 CNS it was 0.682 nM and 23 nM; in the test on U251 CNS, 0.253 nM and 1.31 µM; with UACC-257 melanoma, 1.69 nM and 123 nM; in the test on UO-31 renal, < 0.1 nM and 132 nM.

Turning to `COc1ccc2c(c1)C(=O)CCc1cc(OC)c(OC)c(OC)c1-2`, the TGI in the test with DU-145 prostate is 237 nM and > 100 µM; in the test with HCC-2998 colon it was 493 nM and > 100 µM; in the test with HT29 colon it was 180 nM and 12.1 nM; with KM12 colon it was 129 nM and > 100 µM; with NCI-H226 lung, 65.9 nM and > 100 µM; in the test on NCI/ADR-RES ovarian, 51.5 nM and > 100 µM. In the test with OVCAR-8 ovarian, the TGI is 209 nM and > 100 µM.

With `CCOC(=O)Nc1cc2c(c(N)n1)N=C(c1ccc(OC)cc1)CN2`, the TGI in the test with CAKI-1 renal was 16.3 nM and > 100 µM; in the test on MOLT-4 leukemia it was 0.455 nM and 13 µM; with NCI-H23 lung, 929 nM and 96.2 µM; in the test with SW-620 colon it was 386 nM and > 100 µM; with UO-31 renal it was 379 nM and > 100 µM.

On to `N[C@H](C(=O)O)[C@@H]1CC(Cl)=NO1`, for which, in the test on HL-60(TB) leukemia, the TGI was 69.2 µM and > 1 mM.
